In the supplement of paper PMC12217912:
The other results are listed elsewhere or left out. Sequences were assembled here from the parent chain. Values near 0.05 are background.

B1: TEV protease; numbered along this chain (parent)
chain: MGESLFKGPRDYNPISSSICHLTNESDGHTTSLYGIGFGPFIITNKHLFRRNNGTLVVQSLHGVFKVKDTTTLQQHLVDGRDMIIIRMPKDFPPFPQKLKFREPQREERICLVTTNFQTKSMSSMVSDTSCTFPSGDGIFWKHWIQTKDGQCGSPLVSTRDGFIVGIHSASNFTNTNNYFTSVPKNFMELLTNQEAQQWVSGWRLNADSVLWGGHKVFMVKPEEPFQPVKEATQL

Variants of: B1
Assay: raw area under fraction-flipped curve 0-4 h after induction (AUC4h, not background-subtracted), DNA-recorder readout of cleavage of the substrate (dimensionless); higher = more cleavage of the substrate by the protease variant
Conditions: temperature: 34 °C; time window: 0-4 h after rhamnose induction
Experimental: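 In vivo DNA recorder in E. coli TOP10(DE3) ΔrhaA at 34 °C. Each TEVp single-site mutant (parent TEVp 0) is paired with a single-site variant of the 7-mer TEVs (canonical ENLYFQ|S). The substrate sits between flexible linkers in a Bxb1-sfGFP-TEVs-SsrA fusion, so cleavage stabilises Bxb1 and speeds flipping of a recombination array, read by NGS. The value is the raw area under the fraction-flipped curve over 0-4 h after rhamnose induction (AUC4h), with ≥20 reads per time point. It is not background-subtracted; inactive controls average about 0.047.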
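Also: Bxb1 expression induced with 0.2% (w/v) L-rhamnose at OD600 near 0.5, cultures sampled hourly, flipped fraction per protease–substrate barcode pair counted by paired-end Illumina sequencing.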

Variant | area with substrate ENLEFQS | area with substrate ENLGFQS | area with substrate ENLHFQS | area with substrate ENLIFQS | area with substrate ENLKFQS | area with substrate ENLPFQS | area with substrate ENLLFQS | area with substrate ENLMFQS | area with substrate ENLNFQS | area with substrate ENLQFQS
MGESLFKGPRDYNPISSSICHLTNESDGHTTSLYGIGFGPFIITNKHLFRRNNGTLVDQSLHGVFKVKDTTTLQQHLVDGRDMIIIRMPKDFPPFPQKLKFREPQREERICLVTTNFQTKSMSSMVSDTSCTFPSGDGIFWKHWIQTKDGQCGSPLVSTRDGFIVGIHSASNFTNTNNYFTSVPKNFMELLTNQEAQQWVSGWRLNADSVLWGGHKVFMVKPEEPFQPVKEATQL [V58D] | 0.0247 | 0.0563 | 0.0685 | 0.0453 | 0.0559 | 0.0515 | – | – | – | –
MGESLFKGPRDYNPISSSICHLTNESDGHTTSLYGIGFGPFIITNKHLFRRNNGTLVVQSLHGVFKGKDTTTLQQHLVDGRDMIIIRMPKDFPPFPQKLKFREPQREERICLVTTNFQTKSMSSMVSDTSCTFPSGDGIFWKHWIQTKDGQCGSPLVSTRDGFIVGIHSASNFTNTNNYFTSVPKNFMELLTNQEAQQWVSGWRLNADSVLWGGHKVFMVKPEEPFQPVKEATQL [V67G] | 0.031 | 0.06 | – | – | – | 0.0305 | 0.0767 | 0.0468 | 0.0594 | 0.0494
MGESLFKGPRDYNPISSSICHLTNESDGHTTSLYGIGFGPFIITNKHLFRRNNGTLVVQSLHGVFKVKDTTTLQQHLVEGRDMIIIRMPKDFPPFPQKLKFREPQREERICLVTTNFQTKSMSSMVSDTSCTFPSGDGIFWKHWIQTKDGQCGSPLVSTRDGFIVGIHSASNFTNTNNYFTSVPKNFMELLTNQEAQQWVSGWRLNADSVLWGGHKVFMVKPEEPFQPVKEATQL [D79E] | 0.0617 | – | 0.0649 | – | – | – | – | – | – | –
MGESLFKGPRDYNPISSSICHLTNESDGHTTSLYGIGFGPFIITNKHLFRRNNGTLVVQSLHGVFKVKDTTTLQQHLVDGRDMIIIVMPKDFPPFPQKLKFREPQREERICLVTTNFQTKSMSSMVSDTSCTFPSGDGIFWKHWIQTKDGQCGSPLVSTRDGFIVGIHSASNFTNTNNYFTSVPKNFMELLTNQEAQQWVSGWRLNADSVLWGGHKVFMVKPEEPFQPVKEATQL [R87V] | 0.0029 | – | 0.0597 | – | – | – | – | 0.0599 | 0.0701 | –
MGESLFKGPRDYNPISSSICHLTNESDGHTTSLYGIGFGPFIITNKHLFRRNNGTLVVQSLHGVFKVKDTTTLQQHLVDGRDMIIIRMPKDGPPFPQKLKFREPQREERICLVTTNFQTKSMSSMVSDTSCTFPSGDGIFWKHWIQTKDGQCGSPLVSTRDGFIVGIHSASNFTNTNNYFTSVPKNFMELLTNQEAQQWVSGWRLNADSVLWGGHKVFMVKPEEPFQPVKEATQL [F92G] | 0.0665 | – | – | – | 0.0834 | – | – | – | – | –
MGESLFKGPRDYNPISSSICHLTNESDGHTTSLYGIGFGPFIITNKHLFRRNNGTLVVQSLHGVFKVKDTTTLQQHLVDGRDMIIIRMPKDFPPFPQVLKFREPQREERICLVTTNFQTKSMSSMVSDTSCTFPSGDGIFWKHWIQTKDGQCGSPLVSTRDGFIVGIHSASNFTNTNNYFTSVPKNFMELLTNQEAQQWVSGWRLNADSVLWGGHKVFMVKPEEPFQPVKEATQL [K98V] | 0.0545 | – | – | – | 0.0795 | 0.0568 | – | – | 0.0625 | –
MGESLFKGPRDYNPISSSICHLTNESDGHTTSLYGIGFGPFIITNKHLFRRNNGTLVVQSLHGVFKVKDTTTLQQHLVDGRDMIIIRMPKDFPPFPQKLKFREPQREERIALVTTNFQTKSMSSMVSDTSCTFPSGDGIFWKHWIQTKDGQCGSPLVSTRDGFIVGIHSASNFTNTNNYFTSVPKNFMELLTNQEAQQWVSGWRLNADSVLWGGHKVFMVKPEEPFQPVKEATQL [C111A] | 0.056 | 0.0584 | – | – | – | – | – | – | 0.0669 | –
MGESLFKGPRDYNPISSSICHLTNESDGHTTSLYGIGFGPFIITNKHLFRRNNGTLVVQSLHGVFKVKDTTTLQQHLVDGRDMIIIRMPKDFPPFPQKLKFREPQREERICLVTTFFQTKSMSSMVSDTSCTFPSGDGIFWKHWIQTKDGQCGSPLVSTRDGFIVGIHSASNFTNTNNYFTSVPKNFMELLTNQEAQQWVSGWRLNADSVLWGGHKVFMVKPEEPFQPVKEATQL [N116F] | 0.0673 | – | 0.0767 | – | 0.0856 | – | – | – | 0.111 | –
MGESLFKGPRDYNPISSSICHLTNESDGHTTSLYGIGFGPFIITNKHLFRRNNGTLVVQSLHGVFKVKDTTTLQQHLVDGRDMIIIRMPKDFPPFPQKLKFREPQREERICLVTTNFQCKSMSSMVSDTSCTFPSGDGIFWKHWIQTKDGQCGSPLVSTRDGFIVGIHSASNFTNTNNYFTSVPKNFMELLTNQEAQQWVSGWRLNADSVLWGGHKVFMVKPEEPFQPVKEATQL [T119C] | 0.0852 | – | 0.0789 | – | – | 0.0666 | – | – | – | –
MGESLFKGPRDYNPISSSICHLTNESDGHTTSLYGIGFGPFIITNKHLFRRNNGTLVVQSLHGVFKVKDTTTLQQHLVDGRDMIIIRMPKDFPPFPQKLKFREPQREERICLVTTNFQTKSMSSMVSDKSCTFPSGDGIFWKHWIQTKDGQCGSPLVSTRDGFIVGIHSASNFTNTNNYFTSVPKNFMELLTNQEAQQWVSGWRLNADSVLWGGHKVFMVKPEEPFQPVKEATQL [T129K] | 0.0457 | 0.0714 | 0.1 | – | – | 0.0662 | – | 0.0876 | – | 0.0672
MGESLFKGPRDYNPISSSICHLTNESDGHTTSLYGIGFGPFIITNKHLFRRNNGTLVVQSLHGVFKVKDTTTLQQHLVDGRDMIIIRMPKDFPPFPQKLKFREPQREERICLVTTNFQTKSMSSMVSDTSHTFPSGDGIFWKHWIQTKDGQCGSPLVSTRDGFIVGIHSASNFTNTNNYFTSVPKNFMELLTNQEAQQWVSGWRLNADSVLWGGHKVFMVKPEEPFQPVKEATQL [C131H] | 0.0593 | – | – | – | – | – | – | – | – | –

Same assay, conditions: temperature: 34 °C; time window: 0-4 h after rhamnose induction

Variant | area with substrate ENLVFQS | area with substrate ENLWFQS | area with substrate ENLFFQS | area with substrate ENLSFQS | area with substrate ENLTFQS | area with substrate ENLRFQS
MGESLFKGPRDYNPISSSICHLTNESDGHTTSLYGIGFGPFIITNKHLFRRNNGTLVVQSLHGVFKGKDTTTLQQHLVDGRDMIIIRMPKDFPPFPQKLKFREPQREERICLVTTNFQTKSMSSMVSDTSCTFPSGDGIFWKHWIQTKDGQCGSPLVSTRDGFIVGIHSASNFTNTNNYFTSVPKNFMELLTNQEAQQWVSGWRLNADSVLWGGHKVFMVKPEEPFQPVKEATQL [V67G] | 0.0278 | – | – | – | – | –
MGESLFKGPRDYNPISSSICHLTNESDGHTTSLYGIGFGPFIITNKHLFRRNNGTLVVQSLHGVFKVKDTTTLQQHLVEGRDMIIIRMPKDFPPFPQKLKFREPQREERICLVTTNFQTKSMSSMVSDTSCTFPSGDGIFWKHWIQTKDGQCGSPLVSTRDGFIVGIHSASNFTNTNNYFTSVPKNFMELLTNQEAQQWVSGWRLNADSVLWGGHKVFMVKPEEPFQPVKEATQL [D79E] | – | 0.0683 | – | – | – | –
MGESLFKGPRDYNPISSSICHLTNESDGHTTSLYGIGFGPFIITNKHLFRRNNGTLVVQSLHGVFKVKDTTTLQQHLVDGRDMIIIVMPKDFPPFPQKLKFREPQREERICLVTTNFQTKSMSSMVSDTSCTFPSGDGIFWKHWIQTKDGQCGSPLVSTRDGFIVGIHSASNFTNTNNYFTSVPKNFMELLTNQEAQQWVSGWRLNADSVLWGGHKVFMVKPEEPFQPVKEATQL [R87V] | 0.0579 | – | – | – | – | –
MGESLFKGPRDYNPISSSICHLTNESDGHTTSLYGIGFGPFIITNKHLFRRNNGTLVVQSLHGVFKVKDTTTLQQHLVDGRDMIIIRMPKDGPPFPQKLKFREPQREERICLVTTNFQTKSMSSMVSDTSCTFPSGDGIFWKHWIQTKDGQCGSPLVSTRDGFIVGIHSASNFTNTNNYFTSVPKNFMELLTNQEAQQWVSGWRLNADSVLWGGHKVFMVKPEEPFQPVKEATQL [F92G] | 0.0589 | – | 0.0564 | 0.0486 | – | –
MGESLFKGPRDYNPISSSICHLTNESDGHTTSLYGIGFGPFIITNKHLFRRNNGTLVVQSLHGVFKVKDTTTLQQHLVDGRDMIIIRMPKDFPPFPQVLKFREPQREERICLVTTNFQTKSMSSMVSDTSCTFPSGDGIFWKHWIQTKDGQCGSPLVSTRDGFIVGIHSASNFTNTNNYFTSVPKNFMELLTNQEAQQWVSGWRLNADSVLWGGHKVFMVKPEEPFQPVKEATQL [K98V] | 0.0942 | – | 0.0914 | – | 0.0771 | –
MGESLFKGPRDYNPISSSICHLTNESDGHTTSLYGIGFGPFIITNKHLFRRNNGTLVVQSLHGVFKVKDTTTLQQHLVDGRDMIIIRMPKDFPPFPQKLKFREPQREERIALVTTNFQTKSMSSMVSDTSCTFPSGDGIFWKHWIQTKDGQCGSPLVSTRDGFIVGIHSASNFTNTNNYFTSVPKNFMELLTNQEAQQWVSGWRLNADSVLWGGHKVFMVKPEEPFQPVKEATQL [C111A] | – | – | 0.0971 | – | – | 0.0845
MGESLFKGPRDYNPISSSICHLTNESDGHTTSLYGIGFGPFIITNKHLFRRNNGTLVVQSLHGVFKVKDTTTLQQHLVDGRDMIIIRMPKDFPPFPQKLKFREPQREERICLVTTFFQTKSMSSMVSDTSCTFPSGDGIFWKHWIQTKDGQCGSPLVSTRDGFIVGIHSASNFTNTNNYFTSVPKNFMELLTNQEAQQWVSGWRLNADSVLWGGHKVFMVKPEEPFQPVKEATQL [N116F] | 0.0736 | 0.0775 | – | – | – | –
MGESLFKGPRDYNPISSSICHLTNESDGHTTSLYGIGFGPFIITNKHLFRRNNGTLVVQSLHGVFKVKDTTTLQQHLVDGRDMIIIRMPKDFPPFPQKLKFREPQREERICLVTTNFQCKSMSSMVSDTSCTFPSGDGIFWKHWIQTKDGQCGSPLVSTRDGFIVGIHSASNFTNTNNYFTSVPKNFMELLTNQEAQQWVSGWRLNADSVLWGGHKVFMVKPEEPFQPVKEATQL [T119C] | – | 0.0667 | 0.08 | 0.0643 | – | –
MGESLFKGPRDYNPISSSICHLTNESDGHTTSLYGIGFGPFIITNKHLFRRNNGTLVVQSLHGVFKVKDTTTLQQHLVDGRDMIIIRMPKDFPPFPQKLKFREPQREERICLVTTNFQTKSMSSMVSDKSCTFPSGDGIFWKHWIQTKDGQCGSPLVSTRDGFIVGIHSASNFTNTNNYFTSVPKNFMELLTNQEAQQWVSGWRLNADSVLWGGHKVFMVKPEEPFQPVKEATQL [T129K] | 0.0469 | – | – | 0.0898 | – | –
MGESLFKGPRDYNPISSSICHLTNESDGHTTSLYGIGFGPFIITNKHLFRRNNGTLVVQSLHGVFKVKDTTTLQQHLVDGRDMIIIRMPKDFPPFPQKLKFREPQREERICLVTTNFQTKSMSSMVSDTSHTFPSGDGIFWKHWIQTKDGQCGSPLVSTRDGFIVGIHSASNFTNTNNYFTSVPKNFMELLTNQEAQQWVSGWRLNADSVLWGGHKVFMVKPEEPFQPVKEATQL [C131H] | – | 0.0591 | 0.0678 | – | – | –
